By % Inhibition is commonly meant the change of the read-out against control, counted positive when it falls.

Molecules are shown by their SMILES. The whole screen tested about 150,000 compounds, of which about 540 (0.36%) showed an effect of 50% or more. The list shows a part of the results.

From ChEMBL document CHEMBL4888484, “Replenishing the malaria drug discovery pipeline: Screening and hit evaluation of the MMV Hit Generation Library 1 (HGL1) against asexual blood stage Plasmodium falciparum ,using a nano luciferase reporter read-out” (2022) come the findings set out here.

The subject of the assay is Plasmodium falciparum. Put plainly: Primary screen in NF54 nanoGlo assay, in single point, at 2uM, 72h; a lower Z score goes with more inhibition. Type of assay: functional, Erythrocyte. The following applies: timepoint 72 hour.
In the case of `COc1ccccc1CN1CCN2C(=O)N(C3CCOCC3)C[C@H]2C1`, the “% Inhibition” value is 10% and the Z score is given as -1.17.

With `CC(C)n1ccnc1Cn1nc(C(F)(F)F)ccc1=O`, the “% Inhibition” value is -12% and the Z score is on record as 1.87.

Take `C[C@H](NC(=O)N[C@H]1CCCC[C@H]1CC(F)(F)F)c1cccnc1`: the “% Inhibition” value is -1% and the Z score amounted to 0.18.

As for `O=C1NC[C@@H]2CCC[C@@H](CCOc3ccccc3C(=O)N3CCN(C4COC4)C[C@@H]13)O2`, the “% Inhibition” value is recorded as -9% and the Z score turned out to be 1.37.

`COc1cccc(CN2C[C@@H](O)C[C@H]2c2nnc3n2CCN(C(=O)C(C)C)C3)c1OC`: the “% Inhibition” value is 5% and the Z score is on record as -0.78.

For `CC1CCC(C(N)=O)C(C)N1C(=O)C(F)F` (centres undefined), the “% Inhibition” value was -3% and the Z score was 0.64.

Take `CC1(C)NC(=O)N(CC(=O)N[C@@H](Cc2ccccc2)c2ccccc2)C1=O`: the “% Inhibition” value is -2% and the Z score stood at 0.33.

Take `Cc1cc(C)nc(NCCC(=O)N2CCc3ccccc3C2)n1`: the “% Inhibition” value was -20% and the Z score worked out at 2.82.

For `CCc1ccc(C(=O)N2CCN(C(=O)c3nnn4c3CO[C@H](c3ccc(Cl)cc3)C4)CC2)cc1`, the “% Inhibition” value was -30% and the Z score is on record as 2.76.

For the compound `CC(=O)N1C(=O)c2ccc(Oc3cccc(N4C(=O)c5cccnc5C4=O)c3)cc2C1=O`, the “% Inhibition” value is 4% and the Z score is on record as -0.59.

Turning to `Cc1cnc(C(=O)N2CCC(CNC(=O)c3ccc4c(c3)ncn4C)CC2)cn1`, the “% Inhibition” value was -1% and the Z score is 0.17.

In the case of `Cc1ccc(S(=O)(=O)N[C@@H](C)C(=O)NCc2cscn2)c(C)c1`, the “% Inhibition” value was -5% and the Z score is 0.6.

In the case of `CN(C)S(=O)(=O)CCNC(=O)COc1cccc2c1ccn2Cc1ccccc1`, the “% Inhibition” value is reported as -14% and the Z score stood at 1.72.

With `CCCC(C#N)NC(=O)C(O)C1CCN(C(=O)OC(C)(C)C)CC1` (centres undefined), the “% Inhibition” value is -15% and the Z score is given as 1.77.

Consider `O=C(NC1CCCCC1)[C@H]1CCCN(c2cnn(Cc3ccccc3)c(=O)c2)C1`, for which the “% Inhibition” value is recorded as 32% and the Z score is -3.6.

Turning to `CCOc1c(Br)cc(Cl)cc1NCC(=O)NC(=O)NC1CCCC1`, the “% Inhibition” value was 7% and the Z score is given as -0.97.

For `Cc1ccc(-n2nc(C)c3sc(N4CCCC(C(=O)NCC5CCCO5)C4)nc32)cc1` (centres undefined), the “% Inhibition” value is -12% and the Z score was found to be 1.56.

As to `O=C(Nc1ccccc1)N(Cc1ccccc1)Cc1ccccc1`, the “% Inhibition” value was 12% and the Z score is reported as -2.27.

With `CC(C)Nc1cccc(CNC(=O)C2(C)CC3CCC2O3)c1` (centres undefined), the “% Inhibition” value is -18% and the Z score was 1.79.

Consider `Cc1n[nH]c(C)c1CC(C)C(=O)N1CCCC1C(C)(C)O` (centres undefined), for which the “% Inhibition” value is listed as -2% and the Z score is 0.21.

`CC(C)C[C@H](C)CC(=O)NS(=O)(=O)c1ccsc1C(N)=O`: the “% Inhibition” value amounted to 8% and the Z score is -1.43.

In the case of `Cc1cc(C(=O)N2CCN[C@@H](Cc3ccccc3)C2)ncn1`, the “% Inhibition” value is -4% and the Z score came to 0.7.
